Results from PubChem BioAssay AID485364 (National Center for Advancing Translational Sciences (NCATS), 2010).
In all, about 360,000 compounds went through this assay and about 11,000 (3.1%) were called active. The shares of active, inactive and inconclusive entries below differ from those in the screen. Calls follow the shape of the dose curve; as a rule, active = well fitted inhibition curve with a large enough effect; inconclusive = small, poorly fitted or top-dose-only effect; inactive = no such curve, though single readings can be large or run the other way. No potency is given beside an inconclusive call; the fits are too rough.

target: Schistosoma mansoni thioredoxin glutathione reductase (TGR) (UniProt Q962Y6); test: qHTS Assay for the Inhibitors of Schistosoma Mansoni Peroxiredoxins; settings: purified TGR, DTNB reduction, TNB absorbance 405 nm; activity change, negative = inhibition: at 114 µM (top of the series) unless noted; also: nearly all actives have a fitted effect of over 60% in size
In short: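 First, TGR (20 nM dispensed) and NADPH were mixed with compound. Second, a 15 min room-temperature incubation followed. Third, further NADPH and then DTNB were added to start the reaction. Finally, TNB absorbance was monitored kinetically.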
% is scaled to controls: 0 for no effect and ±100 for the full control effect; potency is read from the fitted curve at half-maximal effect; tags tell the direction and shape of the fitted curve.

Compound	activity change, negative = inhibition	Potency
Cc1cccc(NS(=O)(=O)c2ccc(NC(=O)CN(c3cc([N+](=O)[O-])ccc3C)S(C)(=O)=O)cc2)c1	inactive: -1.54%	–
COc1cccc(C2c3[nH]c4ccccc4c3CCN2Cc2cccc(C)n2)c1 (stereo not given)	–	inconclusive [inhibitor, partial curve]
CCCCOc1ccccc1C(=O)N(Cc1ccc(C)o1)C1CCS(=O)(=O)C1 (stereo not given)	–	inconclusive [inhibitor, full curve]
CCN1C(=O)[C@H]2[C@@H](c3ccc(-c4ccc(F)cc4)c(OC)c3)N[C@@](C)(C(=O)OC)[C@H]2C1=O	–	active: 15.8 µM
Cc1nc2ncnn2c(C)c1Cc1cccc(C(F)(F)F)c1	–	inconclusive [inhibitor, full curve, poor fit]
C[C@H](O)[C@H](O)[C@H]1CNc2nc(N)[nH]c(=O)c2N1	–	inconclusive [inhibitor, partial curve]
c1ccc(OCCCc2nc(-c3ccccn3)no2)cc1	–	inconclusive [inhibitor, single point]
CC12CC3CC(C)(C1)CC(C(=O)N1CCN(C(=O)c4ccco4)CC1)(C3)C2	–	inconclusive [inhibitor, single point]
Cc1nnsc1C(=O)NC1CCCc2c1cnn2-c1ccc(F)cc1F (stereo not given)	–	inconclusive [inhibitor, single point]
CN(C)S(=O)(=O)c1cccc(-n2sc3ccccc3c2=O)c1	–	inconclusive [inhibitor, full curve]
CC(C)COc1ccc(C(=O)CCN2CCCCC2)cc1	–	active: 0.355 µM
COc1ccc(S(=O)(=O)NC2CC3CCC2C3)cc1 (stereo not given)	inactive: -8.84%	–
CCN(CC)S(=O)(=O)c1cccc(NC2=NCCCCC2)c1	inactive: -1.13%	–
COc1ccc2nc(COC(=O)c3cccc([N+](=O)[O-])c3)c(C(C)=O)[n+]([O-])c2c1	–	inconclusive [inhibitor, partial curve]
COc1cc2c(cc1OC)C1OC(c3ccsc3)(C2)Oc2cc(C)oc(=O)c21 (stereo not given)	–	inconclusive [inhibitor, partial curve]
CCc1ccc(NC(=O)C(C)OC(=O)C2CCN(c3ccc(C(F)(F)F)cn3)CC2)cc1 (stereo not given)	inactive: -1.51%	–
Cc1ccc2c(C(=O)CN3CCCCC3)c(C)[nH]c2c1	–	active: 20 µM
Cc1ccc2c(c1)c1ccc3c(c1n2C)C(=O)C=CC3=O	–	active: 2.51 µM
Cc1ccc(N2C(=O)NC(=O)/C(=C\c3cc(C)n(-c4ccc(C(=O)O)cc4)c3C)C2=O)cc1	–	inconclusive [inhibitor, partial curve]
N=C(N)SCc1ccccc1Cl	inactive: 6.52%	–
O=C(N1CCNCC1)N1CCOCC1	–	inconclusive [inhibitor, single point]
CCn1c(=O)c2sccc2n2c(CCC(=O)Nc3cc(C)cc(C)c3)nnc12	inactive: 3.08%	–
COC(=O)c1ccc2c(c1)NC(=O)CS2	inactive: -6.78%	–
CCOC(=O)c1c(-c2ccccc2)oc2ccc(O)cc12	–	inconclusive [inhibitor, partial curve]
O=C(Cn1c(=O)oc2cc(S(=O)(=O)N3CCCC3)ccc21)N1CCN(C2CCCCC2)CC1	–	inconclusive [inhibitor, partial curve]

Compound	activity change, negative = inhibition	Potency
Cc1ccsc1/C=N/NC(=O)Cc1cccn1C	–	inconclusive [inhibitor, partial curve]
Cc1ccc(OCc2cc(C(=O)NCc3cn4ccccc4n3)no2)cc1C	inactive: -16%	–
O=C(Nc1ccc(-c2cscn2)cc1)C1CCCN(Cc2ccccc2)C1 (stereo not given)	inactive: -2.05%	–
CCC(C(=O)NCc1ccco1)n1nc(-c2ccc(OC)cc2)ccc1=O (stereo not given)	–	inconclusive [inhibitor, partial curve]
O=C(C[n+]1cn(C(F)F)c2ccccc21)c1ccc(OC(F)F)cc1	–	active: 7.08 µM
O=C(CSc1nnc(SCc2cccc3ccccc23)s1)N/N=C/c1c[nH]c2ccccc12	inactive: 3.39%	–
Cc1ccc2cc(C(c3nnnn3CC3CCCO3)N3CCc4ccccc4C3)c(=O)[nH]c2c1 (stereo not given)	–	inconclusive [inhibitor, full curve]
COc1ccc(CN2C(=O)/C(=C/c3ccc(-c4ccc(Cl)c(C(=O)O)c4)o3)SC2=S)cc1	–	inconclusive [inhibitor, partial curve]
CNC(=O)c1cc2ncc(C(F)(F)F)cc2s1	inactive: 10.7%	–
COCCn1c(C)cc(O)c(C(c2ccc(C)cc2)N2CCCCC2)c1=O (stereo not given)	–	active: 8.91 µM
Cc1ccc(NS(=O)(=O)c2c(C)nc3sccn3c2=O)cc1C	–	inconclusive [inhibitor, partial curve, poor fit]
CC(C)Oc1ccc(/C(O)=C2/C(=O)C(=O)N(CCN(C)C)C2c2ccco2)cc1 (stereo not given)	–	inconclusive [inhibitor, full curve]
NCCc1ccc(O)c(O)c1	–	active: 14.1 µM
Cc1cc(C)n(-c2ccc(C(=O)Nc3ccc(N4CCOCC4)cc3)cc2)n1	inactive: 7.2%	–
O=C(CCCn1c(=O)[nH]c2ccsc2c1=O)N1CCCCC1	inactive: 3.31%	–
N#Cc1c(-c2ccccc2)nc(-c2ccccc2)[nH]c1=O	inactive: 4.26%	–
C#CCOCCOCCOCCNc1nc(N2CCN(C(=O)CCCCCCCCCCNC(=O)[C@H](CCCCN)n3cc(CCO)nn3)CC2)nc(N2CCN(C(=O)CCCCCCCCCCNC(=O)[C@H](CCCCN)n3cc(CCO)nn3)CC2)n1	–	active: 35.5 µM
O=C(O)C1=C[C@H](c2ccc(F)cc2)C[C@H](OCCCCO)O1	–	inconclusive [inhibitor, partial curve]
CCN(C(=O)COC(=O)c1ccccc1NC(=O)c1ccco1)C1CCS(=O)(=O)C1 (stereo not given)	–	inconclusive [inhibitor, partial curve]
CCn1cc(S(=O)(=O)NCc2ccc3c(c2)OCO3)cn1	–	inconclusive [inhibitor, full curve, poor fit]
Cc1ccc(S(=O)(=O)NC(=O)c2cc(C)n(CCCn3ccnc3)c2C)cc1	–	inconclusive [inhibitor, partial curve]
CCCc1cc(C(=O)Nc2cccc(Cl)c2)no1	inactive: 5.75%	–
O=C(C[n+]1ccncc1)c1ccccc1	–	active: 35.5 µM
CCSc1nc(O)c(C(c2cccc(OC)c2)c2c(O)nc(SCC)[nH]c2=O)c(=O)[nH]1	–	active: 5.01 µM
COc1ccc(S(=O)(=O)NCC2CCCN(C(=O)c3ccco3)C2)cc1 (stereo not given)	–	inconclusive [inhibitor, partial curve]

Compound	activity change, negative = inhibition	Potency
Cc1cc(OCC(=O)N(C)Cc2ccccc2)ccc1Cl	inactive: -8.93%	–
Cc1ccc(NS(=O)(=O)c2cc(C(=O)O)ccc2Cl)c(C)c1	–	inconclusive [inhibitor, single point]
COC(=O)CCCC1=CC2=CC(=O)C(C)(OC(=O)c3cccs3)C(=O)C2=CN1CCCCO (stereo not given)	–	inconclusive [inhibitor, full curve, poor fit]
CCc1ccc(CNc2ccc(N3CCN(C(C)=O)CC3)cc2)cc1	–	inconclusive [inhibitor, partial curve, poor fit]
CCCCn1c(N)c(N(Cc2ccccc2)C(=O)COc2ccccc2F)c(=O)[nH]c1=O	inactive: -7.16%	–
N#CCOc1ccccc1/C=C/c1nc2ccccc2c(=O)[nH]1	inactive: -0.211%	–
Nc1c(-c2ccccc2)cnn1-c1cccc(C(F)(F)F)c1	inactive: 8.65%	–
Cc1sc2nc(CN3CCCCC3)nc(Cl)c2c1C	–	active: 50.1 µM
O=C(C1=C[C@@H]2[C@H]3C(=O)N(c4ccc(Cl)cc4)C(=O)[C@H]3[C@@H](C(=O)c3ccc(Cl)cc3)N2C=C1)c1ccccc1	–	active: 14.1 µM
CCN1CC=C2C(C#N)=C(N)C(C#N)(C#N)C(c3cc(Cl)ccc3Cl)C2C1 (stereo not given)	–	inconclusive [inhibitor, partial curve]
CSc1ncc(/C=C2/C(=O)NC(=O)N(c3ccc(Cl)cc3)C2=O)cn1	–	active: 5.62 µM
O=C(Nc1cnn(Cc2ccc(Cl)c(Cl)c2)c1)c1nc2ncccn2n1	–	inconclusive [inhibitor, full curve, poor fit]
COc1ccc(C(=O)NCCn2cc(SCC(=O)NCCc3ccc(OC)c(OC)c3)c3ccccc32)cc1	inactive: -2.82%	–
COCCNCc1ccccc1[N+](=O)[O-]	–	inconclusive [inhibitor, partial curve]
COC(=O)CS(=O)(=O)c1nc2ccccc2nc1N1CCCCC1	–	inconclusive [inhibitor, partial curve]
O=C(NCc1ccco1)C1CC(c2ccccc2C(F)(F)F)=NO1 (stereo not given)	–	active: 20 µM
CN(Cc1ccccc1)C(=O)c1nc2ccccn2c1CN1CCC(N2CCOCC2)CC1	–	inconclusive [inhibitor, partial curve]
Cc1ccc(C(=O)NNC(=O)C2CCN(Cc3ccccc3)CC2)cc1	inactive: -2.98%	–
O=C(O)CCc1ccc(-c2cccs2)n1NC(=O)c1ccccc1Br	–	inconclusive [inhibitor, partial curve]
O=C(Nc1ccc(NC(=O)N2CCN(c3ccccc3O)CC2)cc1)N1CCN(c2ccccc2O)CC1	inactive: -1.32%	–
Nc1ccc2c(c1)OCCOCCOCCOCCOCCO2	inactive: -9.72%	–
COc1ccccc1C(=O)NC(=O)CSc1nnc(N)s1	–	inconclusive [inhibitor, single point]
CC1=CC2(O)OCCN(CCO)C2=CC1=O (stereo not given)	–	active: 20 µM
CCC(=O)Oc1ccc(C/C(=N\O)c2ccc(O)cc2O)o1	–	active: 7.94 µM
Cc1nnc2sc(SCC(=O)N3CCC(C)CC3)nn2c1=O	inactive: 0.87%	–
